Measured values from the supplement of paper PMC10369915.
Some of the results follow. Cut-off read from the data, not from the text of the source: active = 3.2 or more and inactive = the rest. Most of these values are background signal.

Experiments:
Experiment in all cases: enrichment score (SH2-bound / input frequency) (ratio); bacterial display of known human phosphotyrosine sites (pTyr-Var adds point mutants) read by sequencing; higher = stronger binding; tyrosines were phosphorylated by kinases first
Conditions in all cases: peptide library: pTyr-Var
SHP2 C-SH2 domain E139D = molecular target: SHP2 C-SH2 domain E139D
[1] = molecular target: SHP2 C-SH2 domain wild-type
SHP2 N-SH2 domain L43F = molecular target: SHP2 N-SH2 domain L43F
SHP2 N-SH2 domain T42A = molecular target: SHP2 N-SH2 domain T42A
SHP2 N-SH2 domain T52S = molecular target: SHP2 N-SH2 domain T52S
[2] = molecular target: SHP2 N-SH2 domain wild-type

Measured: enrichment score
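Note: displayed peptides selected on beads carrying the immobilized SH2 domain, with library peptides lacking any tyrosine serving as negative controls.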

RPSELYYSKIG [SMG1_Y2253]
inactive: SHP2 C-SH2 domain E139D 0.421 | [1] 0.448 | SHP2 N-SH2 domain L43F 0.53 | SHP2 N-SH2 domain T42A 0.475 | SHP2 N-SH2 domain T52S 0.467 | [2] 0.428

DVYVSYDYGKS [SORL1_Y139]
inactive: SHP2 C-SH2 domain E139D 0.765 | [1] 0.801 | SHP2 N-SH2 domain L43F 0.828 | SHP2 N-SH2 domain T42A 0.652 | SHP2 N-SH2 domain T52S 0.714 | [2] 0.719

PSELFYSKIGP [SMG1_Y2254_YF]
inactive: SHP2 C-SH2 domain E139D 1.02 | [1] 1.65 | SHP2 N-SH2 domain L43F 1.04 | SHP2 N-SH2 domain T42A 1.32 | SHP2 N-SH2 domain T52S 1.47 | [2] 1.07

VQVAFYTVMMN [SPATA17_Y84_M86V_YF]
inactive: SHP2 C-SH2 domain E139D 1.2 | [1] 1.31 | SHP2 N-SH2 domain L43F 1.05 | SHP2 N-SH2 domain T42A 1.07 | SHP2 N-SH2 domain T52S 1.03 | [2] 1.69

KDHPDYKYQLR [SOX10_Y171_P175L]
inactive: SHP2 C-SH2 domain E139D 0.837 | [1] 0.978 | SHP2 N-SH2 domain L43F 0.884 | SHP2 N-SH2 domain T42A 0.71 | SHP2 N-SH2 domain T52S 0.775 | [2] 0.835

QDRTYYESVRT [SPEN_Y633]
inactive: SHP2 C-SH2 domain E139D 0.635 | [1] 1.29 | SHP2 N-SH2 domain L43F 0.574 | SHP2 N-SH2 domain T42A 0.939 | SHP2 N-SH2 domain T52S 0.64 | [2] 0.559

KSEMSCIDGEK [SORBS1_Y485_Y485C]
inactive: SHP2 C-SH2 domain E139D 0.458 | [1] 0.576 | SHP2 N-SH2 domain L43F 0.702 | SHP2 N-SH2 domain T42A 0.57 | SHP2 N-SH2 domain T52S 0.566 | [2] 0.641

VPVPGYTKVPE [SPRR3_Y146_L149V]
inactive: SHP2 C-SH2 domain E139D 0.854 | [1] 0.861 | SHP2 N-SH2 domain L43F 0.774 | SHP2 N-SH2 domain T42A 0.565 | SHP2 N-SH2 domain T52S 0.719 | [2] 1.25

VAHAVYQAVLS [SMG1_Y549]
inactive: SHP2 C-SH2 domain E139D 1.24 | [1] 1.06 | SHP2 N-SH2 domain L43F 1.25 | SHP2 N-SH2 domain T42A 1.05 | SHP2 N-SH2 domain T52S 1.17 | [2] 0.946

NKEAICSGFIR [SMCHD1_Y283_Y283C_YF]
inactive: SHP2 C-SH2 domain E139D 0.979 | [1] 0.935 | SHP2 N-SH2 domain L43F 0.99 | SHP2 N-SH2 domain T42A 0.716 | SHP2 N-SH2 domain T52S 0.68 | [2] 0.921

ALIKAYDKAVA [SMN1_Y43]
inactive: SHP2 C-SH2 domain E139D 1.02 | [1] 0.913 | SHP2 N-SH2 domain L43F 0.797 | SHP2 N-SH2 domain T42A 0.77 | SHP2 N-SH2 domain T52S 0.682 | [2] 0.969

NKEAICSGYIR [SMCHD1_Y283_Y283C]
inactive: SHP2 C-SH2 domain E139D 0.77 | [1] 0.909 | SHP2 N-SH2 domain L43F 0.809 | SHP2 N-SH2 domain T42A 0.525 | SHP2 N-SH2 domain T52S 0.629 | [2] 0.957

QTLEAYIRCNK [SPAST_Y604_W607C]
inactive: SHP2 C-SH2 domain E139D 0.707 | [1] 0.964 | SHP2 N-SH2 domain L43F 0.623 | SHP2 N-SH2 domain T42A 0.68 | SHP2 N-SH2 domain T52S 0.957 | [2] 1.02

KSSDVYVSFDF [SORL1_Y136_YF]
inactive: SHP2 C-SH2 domain E139D 1 | [1] 1.04 | SHP2 N-SH2 domain L43F 0.929 | SHP2 N-SH2 domain T42A 0.954 | SHP2 N-SH2 domain T52S 0.976 | [2] 0.953

DVFVSYDCGKS [SORL1_Y139_Y141C_YF]
inactive: SHP2 C-SH2 domain E139D 0.673 | [1] 0.991 | SHP2 N-SH2 domain L43F 0.8 | SHP2 N-SH2 domain T42A 0.744 | SHP2 N-SH2 domain T52S 0.689 | [2] 0.872

AMIADYMFWLG [SPATA16_Y290]
inactive: SHP2 C-SH2 domain E139D 2.55 | [1] 2.89 | SHP2 N-SH2 domain L43F 2.65 | SHP2 N-SH2 domain T42A 2.09 | SHP2 N-SH2 domain T52S 2.42 | [2] 2.33

TVQVAYFTMMM [SPATA17_Y83_YF]
inactive: SHP2 C-SH2 domain E139D 1.05 | [1] 1.16 | SHP2 N-SH2 domain L43F 0.966 | SHP2 N-SH2 domain T42A 0.872 | SHP2 N-SH2 domain T52S 0.891 | [2] 1.2

RPSELYYSKIS [SMG1_Y2253_G2258S]
inactive: SHP2 C-SH2 domain E139D 0.984 | [1] 1.07 | SHP2 N-SH2 domain L43F 1.55 | SHP2 N-SH2 domain T42A 1.38 | SHP2 N-SH2 domain T52S 1.01 | [2] 1.07

EDGCIYPGTIA [SMN1_Y109_A111G]
inactive: SHP2 C-SH2 domain E139D 0.749 | [1] 0.658 | SHP2 N-SH2 domain L43F 0.68 | SHP2 N-SH2 domain T42A 0.671 | SHP2 N-SH2 domain T52S 0.531 | [2] 0.924
